# Test results published in the BET-seq Pho4 binding data (Le et al. 2018).
# The other results are listed elsewhere or left out. Values were computed here from the reads of four pooled replicates and scatter widely.
# Molecular target: T1, Pho4 (S. cerevisiae) (UniProt P07270)
# T1 sequence: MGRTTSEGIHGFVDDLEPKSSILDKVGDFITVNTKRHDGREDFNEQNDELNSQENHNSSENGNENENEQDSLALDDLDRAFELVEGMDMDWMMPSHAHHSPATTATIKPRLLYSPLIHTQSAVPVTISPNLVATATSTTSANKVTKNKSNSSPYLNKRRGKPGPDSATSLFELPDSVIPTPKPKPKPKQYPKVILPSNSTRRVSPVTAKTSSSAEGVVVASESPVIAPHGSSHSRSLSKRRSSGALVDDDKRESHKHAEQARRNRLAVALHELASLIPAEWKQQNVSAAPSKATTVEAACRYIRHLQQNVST
# Assay: relative binding free energy (BET-seq); higher = weaker binding
# Details: reference: library average
row,Sequence,relative binding free energy [kcal/mol]
1,TTTCACACGTGTGGTG,0.07
2,AGTTTCACGTGATGCG,0.36
3,GGTCGCACGTGTAGTT,0.09
4,TACAGCACGTGGAGTG,-0.06
5,CTTGGCACGTGCGAGG,-0.17
6,TTAGTCACGTGGCGTA,-0.07
7,TATGGCACGTGCCTGT,-0.21
8,TATGCCACGTGCTTTT,0.01
9,GTGATCACGTGTAAAG,0.23
10,AGTAACACGTGGGTAA,-0.09
11,TTGAGCACGTGGATTT,0.04
12,ATATACACGTGTGGGT,0.04
13,TTATACACGTGCATTT,0.08
14,GAGGTCACGTGTGGTG,0.17
15,GAGTGCACGTGGGTAT,-0.2
16,TGTGTCACGTGAGCGA,0.31
17,TTTAACACGTGTATGT,-0.05
18,TTGTTCACGTGATGCG,0.33
19,CCGGTCACGTGGGGCT,-0.06
20,GCAGTCACGTGGTGGG,0.03
21,GTTAGCACGTGATCGA,0.12
22,TGTCGCACGTGTTCGG,0.06
23,TCTGTCACGTGCTTTT,0.18
24,TCTTGCACGTGTTGTC,-0.02
25,TGATCCACGTGAGGGG,0.14

row,Sequence,relative binding free energy [kcal/mol]
1,ACTTGCACGTGTGATG,0.14
2,TGCATCACGTGTAGCT,0.26
3,ATCGTCACGTGCTGTT,-0.01
4,GCATTCACGTGTAGGT,0.16
5,GCTAACACGTGTTGTT,0.09
6,CGACTCACGTGTGGTG,0.13
7,CGTGCCACGTGTTGTT,-0.14
8,TGATGCACGTGTACGA,0
9,TAGTGCACGTGAGGAT,0.14
10,GTAGTCACGTGGCTCG,0.07
11,ACGGTCACGTGGGGCT,-0.04
12,GATGTCACGTGCAAGT,0.18
13,TTTGGCACGTGCGAGA,-0.1
14,TAGGACACGTGTTGGA,0.18
15,ATGTGCACGTGCTAGA,-0.14
16,GAGTTCACGTGTGTCA,0.29
17,CGGAGCACGTGGTGTT,-0.3
18,TGTGTCACGTGGGGAA,-0.06
19,ATGATCACGTGATGGA,0.1
20,TGAGGCACGTGAAAAT,0.23
21,AGGGTCACGTGAGTCG,0.24
22,CGGATCACGTGGGGTT,-0.05
23,ACGTGCACGTGGAGCG,-0.07
24,TGCTGCACGTGGGAGA,-0.12
25,TGGGGCACGTGACAGT,0

row,Sequence,relative binding free energy [kcal/mol]
1,ATGTACACGTGGTTTC,0.06
2,GGAGTCACGTGGGAGC,0.1
3,ACTAGCACGTGTTCGG,0.13
4,GAAGTCACGTGATTGA,0.32
5,GGAAGCACGTGAAGGA,0.19
6,TTTCGCACGTGGGGTT,-0.13
7,AGGGGCACGTGGTAGA,-0.18
8,CTAATCACGTGGGGGG,0.03
9,GGTATCACGTGAAATG,0.36
10,TGTCTCACGTGGAAAG,0.38
11,ATAGACACGTGTTTGC,0.1
12,AATTTCACGTGATACG,0.42
13,CGTTACACGTGATTGG,0.15
14,GAGAGCACGTGGAGGG,-0.16
15,GGGCACACGTGGGGCG,-0.06
16,TTGGTCACGTGCCGTA,0.02
17,TGTGCCACGTGTGTTA,-0.1
18,ATGGACACGTGGGATT,0.1
19,TTGTTCACGTGTTTTA,0.38
20,CTGGGCACGTGTCGGA,-0.15
21,GTCGACACGTGTGGTT,0.12
22,AAAGTCACGTGTTGCG,0.09
23,TGGGTCACGTGTGGCT,0.09
